# From PubChem BioAssay AID360 (National Center for Advancing Translational Sciences (NCATS), 2006)
# The campaign covered roughly 48,000 compounds. About 550 (1.1%) were called active. Roughly 4% stayed inconclusive and do not appear here. Cut-off read from the data, not from the text of the source: active = potency below about 15 µM; inconclusive = mostly about 16 µM to 33 µM; inactive = weaker than that. The list shows a part of the results.
# Target: Lysosomal acid glucosylceramidase (Homo sapiens) (UniProt P04062)
# Assay: Glucocerebrosidase;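 note: the screen sought inhibitors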
# Conditions: purified enzyme, resorufin glucoside fluorescence (screen aimed at inhibitors), 20 min; series mostly up to 77 µM
# In short: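 Normal human glucocerebrosidase (0.2 nM final) was assayed with resorufin β-D-glucopyranoside (30 uM final) in 50mM citric acid/KH2PO4, 10mM sodium taurocholate, 0.01% tween-20, pH 5.9. Compounds were titrated; fluorescence (Ex 548, Em 600) read after 20 min at RT.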
# Potency is the fitted concentration of half-maximal effect.
# Sequence of UniProt P04062 (P04062 whole entry, looked up): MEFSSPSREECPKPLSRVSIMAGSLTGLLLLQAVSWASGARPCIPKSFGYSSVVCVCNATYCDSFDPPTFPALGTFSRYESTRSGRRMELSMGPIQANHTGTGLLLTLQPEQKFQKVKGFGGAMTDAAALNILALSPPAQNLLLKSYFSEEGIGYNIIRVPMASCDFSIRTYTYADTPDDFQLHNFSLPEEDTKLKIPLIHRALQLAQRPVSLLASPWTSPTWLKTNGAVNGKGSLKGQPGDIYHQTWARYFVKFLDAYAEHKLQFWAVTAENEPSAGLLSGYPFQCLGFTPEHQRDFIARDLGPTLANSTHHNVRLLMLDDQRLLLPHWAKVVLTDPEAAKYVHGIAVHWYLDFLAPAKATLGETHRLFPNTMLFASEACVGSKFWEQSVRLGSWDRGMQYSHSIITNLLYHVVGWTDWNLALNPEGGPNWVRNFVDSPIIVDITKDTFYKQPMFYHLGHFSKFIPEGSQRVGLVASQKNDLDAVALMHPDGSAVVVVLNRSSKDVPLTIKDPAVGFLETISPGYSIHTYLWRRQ
row,SMILES,Potency
1,c1ccc(-n2nnnc2SCc2cccc3nsnc23)cc1,inactive: > 76.9 µM
2,Cc1cc(=O)oc(C)c1C(=O)NCCCN1C(C)CCCC1C (stereo unspecified),inactive: > 76.9 µM
3,CNC(=O)c1cc2c(=O)n3cccc(C)c3nc2n1C,inactive: > 76.9 µM
4,O=C(CN1CCCCC1)NCCNC(=O)CN1CCCCC1,inactive: > 76.9 µM
5,N#Cc1nc(-c2ccco2)oc1N1CCN(C(c2ccccc2)c2ccccc2)CC1,inactive: > 76.9 µM
6,O=C(c1ccco1)N1CCCN(C(=O)c2ccco2)CC1,inactive: > 76.9 µM
7,O=C(CCn1c(=O)oc2ccccc21)N1CCc2ccccc21,inactive: > 76.9 µM
8,CC1CCN(S(=O)(=O)c2ccc3c(c2)c(=O)c(C(=O)N2CCCCC2)cn3C)CC1,inactive: > 76.9 µM
9,CC1(C)CC(=O)C(CC(=O)NC(=O)NCc2ccccc2)=C(O)C1,inactive: > 76.9 µM
10,CCOc1ccc2[nH]c(=O)c(CN(CCOC)C(=O)N3CCOCC3)cc2c1,inactive: > 76.9 µM
11,COc1ccc(CNC(=O)C2COc3ccccc3O2)cc1 (stereo unspecified),inactive: > 76.9 µM
12,O=C(CCCn1c(=O)[nH]c2ccsc2c1=O)NCc1cccs1,inactive: > 76.9 µM
13,Cc1ccc(C(C)C)c(Oc2nnnn2-c2ccccc2)c1,inactive: > 76.9 µM
14,CCCCNC(=O)CCn1nc(-c2ccccc2)ccc1=O,inactive: > 76.9 µM
15,CCC1(CC)NC(=O)N(CC(=O)OCn2nnc3ccccc3c2=O)C1=O,inactive: > 76.9 µM
16,c1cnc(Oc2ccc3oc4ccccc4c3c2)nc1,inactive: > 76.9 µM
17,CCC(=O)N1CCc2cc(Br)cc(S(=O)(=O)NCCN3CCCCC3CC)c21 (stereo unspecified),inactive: > 76.9 µM
18,Cc1[nH]nc2c1C1(C(=O)N(Cc3ccc(Cl)cc3)c3ccccc31)C(C#N)=C(N)O2 (stereo unspecified),inactive: > 76.9 µM
19,CCOc1ccc(NC(=O)N(C2CCCCCC2)C2CCN(C(C)=O)CC2)cc1,inactive: > 76.9 µM
20,O=C1OCCC1Sc1nc(-c2ccccc2)cs1 (stereo unspecified),inactive: > 76.9 µM
21,CCOC(=O)C1=C(C)OC(N)=C(C#N)C1c1cc2c(cc1Br)OCO2 (stereo unspecified),inactive: > 76.9 µM
22,CN1CCc2c(sc(/N=C/c3ccco3)c2C(N)=O)C1,inactive: > 76.9 µM
23,COc1ccc(C)cc1S(=O)(=O)N1CCCC(C(=O)NCC2CCCO2)C1 (stereo unspecified),inactive: > 76.9 µM

row,SMILES,Potency
1,O=C(Cn1c(C(=O)NCC2CCCO2)cc2sccc21)c1ccccc1 (stereo unspecified),inactive: > 76.9 µM
2,COC(=O)c1ccccc1N1C(=O)C2C(C1=O)[C@H]1C=C[C@@H]2C1 (stereo partly specified),inactive: > 76.9 µM
3,CCOC(=O)N1CCC(NC(=O)C2CCCN(S(C)(=O)=O)C2)CC1 (stereo unspecified),inactive: > 76.9 µM
4,O=C(Nc1cccc2ccccc12)N1CCN(c2ccccc2)CC1,inactive: > 76.9 µM
5,O=C(Cn1cnc2ccccc21)NCCCN1CCOCC1,inactive: > 76.9 µM
6,Cn1cnc2cc(NS(=O)(=O)c3ccc(Br)cc3)ccc21,inactive
7,CC(Sc1nc(-c2ccccc2)cc(C(F)(F)F)n1)C(=O)N1CCC(C(N)=O)CC1 (stereo unspecified),inactive: > 76.9 µM
8,Cc1noc(C)c1S(=O)(=O)N1CCCC(C(=O)Nc2cccnc2)C1 (stereo unspecified),inactive: > 76.9 µM
9,COc1ccc(OCC(=O)NCc2cccnc2)cc1,inactive: > 76.9 µM
10,O=C(O)c1cccc(CSc2nnc(Cc3ccccc3)o2)c1,inactive: > 76.9 µM
11,Cc1ccccc1-c1nc(CN2CCC(C(=O)NCCCN3CC(C)CC(C)C3)CC2)c(C)o1 (stereo unspecified),inactive: > 76.9 µM
12,Cc1ccc2c(C)nc(NC3=NCN(C(C)C)CN3)nc2c1,inactive: > 76.9 µM
13,CCOC(=O)NC1CCS(=O)(=O)C1 (stereo unspecified),inactive: > 76.9 µM
14,CCOCCCN1C(=O)CN(C2CCCCC2)C(=O)C1c1ccc(OC)c(OC)c1 (stereo unspecified),inactive: > 76.9 µM
15,Cc1ccc(Cl)cc1N1CCN(Cc2nc3c(c(=O)[nH]c(=O)n3C)n2CCc2ccccc2)CC1,inactive: > 76.9 µM
16,Cc1ccc(C2=N/C(=C/N3CCOCC3)C(=O)O2)cc1,inactive: > 76.9 µM
17,Cn1c(=O)cc(SCC(=O)NCC2CCCO2)c2ccccc21 (stereo unspecified),inactive: > 76.9 µM
18,COc1cc(-c2nnc(SCc3cccnc3)n2C)cc(OC)c1O,inactive: > 76.9 µM
19,Brc1c(CSc2nncn2-c2ccccc2)nc2ncccn12,inactive: > 76.9 µM
20,CC(C)CCn1nnnc1C(c1ccccc1)N1CCN(C)CC1 (stereo unspecified),inactive: > 76.9 µM
21,CCCOc1ccc(C2c3c(oc4ccccc4c3=O)C(=O)N2CCN(CC)CC)cc1OC (stereo unspecified),inactive: > 76.9 µM
22,c1ccc(CCNc2ncnc3c2nnn3Cc2ccccc2)cc1,inactive: > 76.9 µM
23,CCN(CC)C(=O)c1c[nH]c2ccc(S(=O)(=O)Nc3cc(C)cc(C)c3)cc2c1=O,inactive: > 76.9 µM

row,SMILES,Potency
1,CCOc1ccccc1NC(=O)CCC(=O)Nc1ccc2nc(N3CCN(C)CC3)cc(C)c2c1,active: 9.63 µM
2,COc1ccccc1-n1c(N)c(C(N)=O)sc1=S,inactive: > 76.9 µM
3,COc1ccc(C2=CC(=O)OC3(CCCCC3)O2)cc1,inactive: > 76.9 µM
4,CCCn1c(SCC(=O)Nc2nc(C)c(C(=O)OC)s2)nnc1C(C)C,inactive: > 76.9 µM
5,CC(C)Cc1nnc(NC(=O)CSc2ncn[nH]2)s1,inactive: > 76.9 µM
6,COCCCN1C(=O)C(=O)/C(=C(/O)c2ccc(OC(C)C)cc2)C1c1ccncc1 (stereo unspecified),inactive: > 76.9 µM
7,Cn1c(NC(=O)c2cc(-c3ccc4c(c3)OCO4)nc3ccccc23)cc(=O)n(C)c1=O,inactive: > 76.9 µM
8,COCCCn1c(SCC(=O)Nc2cccc(C(=O)OC)c2)nnc1-c1ccncc1,inactive: > 76.9 µM
9,CCN(CC)C(=O)NC1CC2CCCC(C1)N2Cc1ccccc1 (stereo unspecified),inactive: > 76.9 µM
10,N#Cc1cccc(Cn2nnc(-c3ccccc3)n2)c1,inactive: > 76.9 µM
11,CCOP(=O)(c1c(F)c(F)c(F)c(F)c1F)C(O)c1ccccc1 (stereo unspecified),inactive: > 76.9 µM
12,COc1ccc2[nH]c(=O)c(CN(C(=O)c3ccccn3)C3CCCCC3)cc2c1,inactive: > 76.9 µM
13,CCC1(CC)C(=O)C(C)(C)C(=O)OC1c1ccccn1 (stereo unspecified),inactive: > 76.9 µM
14,CCc1nc(N)c(C#N)c(-c2ccncc2)c1C,inactive: > 76.9 µM
15,COc1ccc(C(=O)OCC(=O)c2ccc(C)c(S(=O)(=O)N3CCOCC3)c2)cc1OC,inactive: > 76.9 µM
16,Cc1ccc(S(=O)(=O)N2CCN(C(=O)c3cc(=O)[nH]c4ccccc34)CC2)c(C)c1,inactive: > 76.9 µM
17,O=C(NCc1ccco1)c1cc2cc3ccc(Cl)cc3nc2o1,inactive: > 76.9 µM
18,Fc1ccc2[nH]c3c(N4CCN(c5ccccc5)CC4)ncnc3c2c1,inactive: > 76.9 µM
19,O=C(c1cc(Cl)ccc1Cl)N1CCN(c2ccccn2)CC1,inactive: > 76.9 µM
20,CCCN1CCN(CCCNC(=O)C2CCCN(c3nc4ccc(OCC)cc4s3)C2)CC1 (stereo unspecified),inactive: > 76.9 µM
21,COc1ccc(C(C)=O)cc1COC(=O)c1cc(C)oc1C,inactive: > 76.9 µM
22,O=C(CSc1nnnn1C1CCCC1)Nc1ccc2c(c1)OCCO2,inactive: > 76.9 µM
23,Cc1cc(NC(=O)CSc2nc3cc4c(cc3c(=O)n2CCc2ccccc2)OCO4)no1,inactive: > 76.9 µM

row,SMILES,Potency
1,O=C(Nc1ccc(S(=O)(=O)N2CCCC2)cc1)c1ccc(CN2CCOCC2)cc1,inactive
2,CCOC(=O)c1nnn(-c2nonc2N)c1CN1CCCCCC1,inactive: > 76.9 µM
3,O=C(c1ccc(Cl)cc1)C1CCN(C(=O)NC2CCCCC2)CC1,inactive: > 76.9 µM
4,Clc1cccc(-c2nc3nc4ccccc4nc3n2Cc2ccco2)c1,inactive: > 76.9 µM
5,CC1CCC(NC(=O)CN2C(=O)C3CCCN3c3ncc(Cl)cc32)CC1 (stereo unspecified),inactive: > 76.9 µM
6,CC1Oc2ccccc2N(CC(=O)NCC2CCCO2)C1=O (stereo unspecified),inactive: > 76.9 µM
7,Cc1ccc(C(=O)NC2CCCc3ccccc32)o1 (stereo unspecified),inactive: > 76.9 µM
8,CCCCOc1ccccc1-c1cc(C(=O)O)[nH]n1,inactive: > 76.9 µM
9,N#CN=C(N)c1ccccc1,inactive: > 76.9 µM
10,COC(=O)c1ccc(C2C(C#N)=C(N)Oc3cc(C)n(C)c(=O)c32)cc1 (stereo unspecified),inactive: > 76.9 µM
11,CCn1c(=O)c(C(=O)Nc2nc3ccccc3[nH]2)c(O)c2ccccc21,inactive: > 76.9 µM
12,Cc1ccccc1Cn1c(=O)c2c(nc3n2CCCN3Cc2ccccc2)n(C)c1=O,inactive: > 76.9 µM
13,Cc1cccc(NC(=O)CC(C)(C)C)c1,inactive: > 76.9 µM
14,COc1ccccc1NC(=O)N1CCCC1C(=O)NCc1ccccc1F (stereo unspecified),inactive: > 76.9 µM
15,Cc1ccc2cc(CN(CCCO)S(=O)(=O)c3cccc4nsnc34)c(=O)[nH]c2c1C,inactive: > 76.9 µM
16,Oc1ccc(N2CCN(C(c3cccs3)c3nnnn3CCc3ccccc3)CC2)cc1 (stereo unspecified),inactive
17,COc1ccccc1CNCc1cccs1,inactive: > 76.9 µM
18,CC1CCN(S(=O)(=O)c2ccc(NC(=O)CSc3nnnn3C)cc2)CC1,inactive: > 76.9 µM
19,CN(C)C(CNS(=O)(=O)c1ccc(Br)cc1)c1cccnc1 (stereo unspecified),inactive: > 76.9 µM
20,COC(=O)c1ccc(N2C(=O)c3ccc(OC)c(OC)c3C2=O)cc1,inactive: > 76.9 µM
21,CN(Cc1cc(=O)[nH]c2ccccc12)C(=O)c1ccccc1,inactive: > 76.9 µM
22,COc1ccc(OC)c(-c2nc3c(C)n[nH]c(=O)c3[nH]2)c1,inactive: > 76.9 µM
